{"source": "the supplement of paper PMC11417369", "note": "± gives the standard deviation of the averaged measurements. Some of the results follow."}
{"system": "PfAP2-G AP2 domain (GST-tagged)", "assay": "gcPBM binding intensity (ln(normalized median fluorescence intensity)); higher = stronger DNA binding", "how_it_was_run": "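The binding buffer was 1× PBS containing 1% milk, 0.2 mg/ml BSA, 0.5% salmon testes DNA and 0.03% Triton X-100. In it, GST-tagged P. falciparum DNA-binding domains expressed in E. coli were applied for 1 h to an Agilent 4 × 180k array of primer-extended double-stranded 36-bp intergenic genomic probes plus negative controls. Binding intensity, read with Alexa488 anti-GST antibody and a 488 nm scan, is the highest Masliner-normalised natural-log median intensity across replicate spots of either probe orientation.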"}
{"sequence": "ACAGACGTTCAAAGGTGTACGCAAAATGAATAATAT [XGTACX_site7565]", "gcPBM binding intensity (ln)": "11.6 ± 1"}
{"sequence": "GTAAATCGACACATACGTACATACATTTATATATAT [XGTACX_site3143]", "gcPBM binding intensity (ln)": "11.4 ± 0.94"}
{"sequence": "AAAAAAAAGAAAAACACACACATATATATATATAAT [CACACA_site4707]", "gcPBM binding intensity (ln)": "9.72 ± 0.042"}
{"sequence": "ACATTTAATGTTATATGTACATAATATTATAAGTAT [XGTACX_site1393]", "gcPBM binding intensity (ln)": "11.2 ± 0.64"}
{"sequence": "CATATGGCAATAATTACATGCAAAAAAAAAAAAAAA [TGCATGCA_site578]", "gcPBM binding intensity (ln)": "9.82 ± 0.63"}
{"sequence": "AATGTAAAAGTAAACACACACATATATTTATACATA [CACACA_site7218]", "gcPBM binding intensity (ln)": "10.1 ± 0.13"}
{"sequence": "AGCCATATCTTTTTTGCACACACTACAATAAAACAA [CACACA_site1650]", "gcPBM binding intensity (ln)": "10.4 ± 0.29"}
{"sequence": "TTCTTATTTAATGTATCACACACGAGAATAAAAAAT [CACACA_site8992]", "gcPBM binding intensity (ln)": "10.3 ± 0.35"}
{"sequence": "TATACATATATATATTGTACATATTATATATATATA [XGTACX_site3286]", "gcPBM binding intensity (ln)": "10.9 ± 0.56"}
{"sequence": "ATATATATATATATATGTACATATTGTATCTTATAC [XGTACX_site5466]", "gcPBM binding intensity (ln)": "11.2 ± 0.61"}
{"sequence": "ACATTATATTTGGACTGTACTAATATATTGTTATAT [XGTACX_site5573]", "gcPBM binding intensity (ln)": "11.4 ± 0.81"}
{"sequence": "AAAAACCATTGGCACACACACATAATATATAATATA [CACACA_site4903]", "gcPBM binding intensity (ln)": "10.2 ± 0.3"}
{"sequence": "AAGAAAGGTTAAACATGTACATAAATATTTTACATA [XGTACX_site5024]", "gcPBM binding intensity (ln)": "11.2 ± 0.72"}
{"sequence": "TTATATTTAGTATATGCACACTTTATGTTTGTTATT [CACACA_site5163]", "gcPBM binding intensity (ln)": "9.955 ± 0.035"}
{"sequence": "TATAAATACGAACACACACACCTTATAATTACTACT [CACACA_site7827]", "gcPBM binding intensity (ln)": "10.18 ± 0.085"}
{"sequence": "TCTTGTTTATCAACAGCACACACAACAACAACAACA [CACACA_site8046]", "gcPBM binding intensity (ln)": "10.1 ± 0.23"}
{"sequence": "TATATATATACAGTTGCATGTTGTGTTTAAAATTTT [TGCATGCA_site816]", "gcPBM binding intensity (ln)": "9.99 ± 0.26"}
{"sequence": "TGTTAAAAAATGGATGCACACATTAAATAAAAAGTA [CACACA_site1660]", "gcPBM binding intensity (ln)": "10.28 ± 0.042"}
{"sequence": "TAAAGGTAGATATATTGTACATACACACCTATATAA [XGTACX_site6865]", "gcPBM binding intensity (ln)": "10.9 ± 0.45"}
{"sequence": "TCATTGAAAATTGTTGCACACATAATAATTAAATAT [CACACA_site8554]", "gcPBM binding intensity (ln)": "10.3 ± 0.28"}
{"sequence": "ACACATATGTCTTCATGTACATAATATATAAATCTT [XGTACX_site3438]", "gcPBM binding intensity (ln)": "11.2 ± 0.71"}
{"sequence": "CATAAATCAGCCATAACACACATACATATATACATA [CACACA_site8025]", "gcPBM binding intensity (ln)": "9.97 ± 0.057"}
{"sequence": "ATAATATAAACGTATACACACAAGAGAAGCATAAAG [CACACA_site2889]", "gcPBM binding intensity (ln)": "10.2 ± 0.22"}
{"sequence": "AAAAGGAAAGGAAAGGGTACAATCCTATTATATTAT [XGTACX_site8652]", "gcPBM binding intensity (ln)": "11.1 ± 0.66"}
{"sequence": "TTTTTTTAAAAAAAGGGTACATATATATATTTTTCT [XGTACX_site1066]", "gcPBM binding intensity (ln)": "11.3 ± 0.74"}
{"sequence": "AAAAATAAATTTATATATTACAAGAACAAATATAGT [XGTACX_negctrl_site567]", "gcPBM binding intensity (ln)": "10.3 ± 0.28"}
{"sequence": "GAATAAATAAGATACGTACACACATATACAAAATAT [CACACA_site3660]", "gcPBM binding intensity (ln)": "11.7 ± 1.1"}
{"sequence": "TAATTATTTTAAAAAGTGCATTAAAAGATATTAAAT [GTGCAC_site9694]", "gcPBM binding intensity (ln)": "10.1 ± 0.19"}
{"sequence": "TTATTATAAAAATGTAGTACAATACTTTTTTTTTTT [XGTACX_site732]", "gcPBM binding intensity (ln)": "11.7 ± 0.84"}
{"sequence": "GTATTACATGAGGACACACACAAAAAAAATATATAT [CACACA_site769]", "gcPBM binding intensity (ln)": "11.2 ± 0.7"}
{"sequence": "ATAAAATGAACAAACACACACACATATATTTATATA [CACACA_site7181]", "gcPBM binding intensity (ln)": "10 ± 0.014"}
{"sequence": "ATATACTTTAAAGGTTAAGAAAGAAAAAAAAAAAAA [CACACA_negctrl_site956]", "gcPBM binding intensity (ln)": "9.75 ± 0.28"}
{"sequence": "ATATATATATATTATATGCACACGTTAAAATTTCAT [CACACA_site709]", "gcPBM binding intensity (ln)": "10 ± 0.014"}
{"sequence": "TATATATCTATAAACACACACCAAAATTTGTGCTTT [CACACA_site7448]", "gcPBM binding intensity (ln)": "9.87 ± 0.042"}
{"sequence": "GAAGAGACTTAGAAAACACACATACATAAGATAATT [CACACA_site5333]", "gcPBM binding intensity (ln)": "9.85 ± 0.057"}
{"sequence": "AAAAAAAAAAAAAAAACACACATAAAACTATAATAA [CACACA_site7758]", "gcPBM binding intensity (ln)": "10.2 ± 0.24"}
{"sequence": "TTAAAAAGATGTCACTGTACATAAAACATAAAATAT [XGTACX_site2886]", "gcPBM binding intensity (ln)": "11.2 ± 0.78"}
{"sequence": "TAAACAGACATATAAACACACATACATACATACATA [CACACA_site7215]", "gcPBM binding intensity (ln)": "10 ± 0.17"}
{"sequence": "TTTCATGACAATGTTTGTACATAATAAAATATATTT [XGTACX_site7039]", "gcPBM binding intensity (ln)": "11 ± 0.56"}
{"sequence": "ATATAGTAAAGTTATACACACATGAATTTTCCCATG [CACACA_site6923]", "gcPBM binding intensity (ln)": "10 ± 0.071"}
{"sequence": "TTAGAAAAATTATATATACACACTTATATTTATATA [CACACA_site2821]", "gcPBM binding intensity (ln)": "9.63 ± 0.085"}
{"sequence": "ATATATCAAAATAATTGTACAAATTTTATATAATTT [XGTACX_site7249]", "gcPBM binding intensity (ln)": "10.9 ± 0.5"}
{"sequence": "ATATGTATCTCATCGTGTACATGTATATAATATATA [XGTACX_site4139]", "gcPBM binding intensity (ln)": "11.3 ± 0.68"}
{"sequence": "AAAAAATTATATTATGCACACATCGTTATATATATA [CACACA_site1201]", "gcPBM binding intensity (ln)": "9.85 ± 0.014"}
{"sequence": "TATATATACTATAACACACATACACCCAAAAAAAAA [CACACA_site536]", "gcPBM binding intensity (ln)": "10.3 ± 0.3"}
